Test results published in PubChem BioAssay AID1468 (National Center for Advancing Translational Sciences (NCATS), 2008).
Several values for one entry are separate records, joined by “and”; a condition that tells them apart may be missing. Identical values can stand only once. The campaign covered roughly 280,000 compounds. About 1,100 (0.39%) were called active. Inconclusive results, whose numbers are uncertain, are shown with a selection of clear calls. Calls follow the shape of the dose curve; as a rule, active = well fitted inhibition curve with a large enough effect; inconclusive = small, poorly fitted or top-dose-only effect, or effect the other way; inactive = flat fitted curve, though single readings scatter. Potencies beside an inconclusive call are fits to weak or partial responses and may not hold up.
% is scaled to controls: 0 for no effect and ±100 for the full control effect; potency is read from the fitted curve at half-maximal effect; tags tell the direction and shape of the fitted curve.
Also: nearly all actives have a fitted effect of over 55% in size.

Each molecule was assayed against Microtubule-associated protein tau (Homo sapiens) (UniProt P10636) (assay: qHTS for Inhibitors of Tau Fibril Formation, Fluorescence Polarization). Settings: K18 P301L tau heparin fibrillization, Alexa594 FP, 6 h; series mostly up to 57.7 µM; activity, negative = inhibition: at the top concentration.
UniProt P10636, sequence (P10636 whole entry, looked up): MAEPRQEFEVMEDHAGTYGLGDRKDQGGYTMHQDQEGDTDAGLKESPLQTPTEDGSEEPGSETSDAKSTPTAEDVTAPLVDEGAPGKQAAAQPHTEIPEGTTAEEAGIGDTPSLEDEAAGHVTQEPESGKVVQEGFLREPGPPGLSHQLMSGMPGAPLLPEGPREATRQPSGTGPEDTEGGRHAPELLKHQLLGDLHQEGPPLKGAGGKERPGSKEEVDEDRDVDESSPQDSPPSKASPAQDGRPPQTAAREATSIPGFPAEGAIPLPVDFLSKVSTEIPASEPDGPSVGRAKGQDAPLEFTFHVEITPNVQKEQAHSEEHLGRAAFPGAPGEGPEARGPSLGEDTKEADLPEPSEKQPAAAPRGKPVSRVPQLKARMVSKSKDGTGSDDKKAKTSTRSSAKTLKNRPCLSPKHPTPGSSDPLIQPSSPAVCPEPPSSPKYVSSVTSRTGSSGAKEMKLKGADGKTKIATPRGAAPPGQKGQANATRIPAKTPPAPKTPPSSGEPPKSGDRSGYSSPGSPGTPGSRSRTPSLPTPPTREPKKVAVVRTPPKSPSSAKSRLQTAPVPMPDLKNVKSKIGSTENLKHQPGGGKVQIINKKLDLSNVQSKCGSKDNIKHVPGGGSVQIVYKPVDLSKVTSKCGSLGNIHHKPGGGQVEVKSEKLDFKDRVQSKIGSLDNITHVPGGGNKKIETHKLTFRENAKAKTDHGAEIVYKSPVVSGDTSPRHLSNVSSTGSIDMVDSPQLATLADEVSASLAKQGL
How it was run: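 K18 P301L tau (15 uM unlabeled/0.24 uM Alexa 594-labeled, final) + compound + heparin 20 uM final; 100 mM NaOAc pH 7; 6 hr 37 C; ThT 30 uM final added, 1 hr RT; FP ex 555/em 632 nm.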
`CCCC(=O)NC(c1ccc(N(C)C)cc1)c1c(O)ccc2ccccc12` (centres undefined) was tested, and the “activity, negative = inhibition” value was inactive: 7.88%.
For `O=C(CSc1n[nH]c(-c2ccccc2Cl)n1)N1CCN(c2ccc(F)cc2)CC1`, the “activity, negative = inhibition” value was inactive: 1.14%.
`N#C/C(=C\c1ccc(OC(=O)c2ccc(Br)s2)cc1)c1nc2ccccc2[nH]1` was tested, and the Potency was inconclusive: 39.8 µM [inhibitor, single point].
With `CC(=O)c1ccc(N(C(=O)CS(=O)CC(=O)Nc2ccc(F)cc2)C(C(=O)NC2CCCCC2)c2cccs2)cc1` (centres undefined) the Potency was inconclusive: 35.5 µM [inhibitor, single point].
In the case of `CN(C1CCS(=O)(=O)C1)S(=O)(=O)c1ccccc1` (centres undefined), the “activity, negative = inhibition” value was inactive: 7.08%.
`NC(N)=N/N=C/c1ccc(OCc2ccccc2Cl)cc1` was tested, and the “activity, negative = inhibition” value was inactive: -2.3%.
For `Cc1ccc(C(=O)c2ccccc2C(=O)OCC(=O)Nc2cccc([N+](=O)[O-])c2)cc1`, the Potency was inconclusive: 39.8 µM [inhibitor, single point].
With `CC(=O)Nc1ccc2nc(SCc3ccccc3)sc2c1` the Potency was inconclusive: 31.6 µM [inhibitor, partial curve].
`CCOc1ccccc1CN(CCc1ccc2c(c1)OCO2)Cc1cc(OC)c(OC)cc1OC` was tested, and the “activity, negative = inhibition” value was inactive: -11.8%.
In the case of `Clc1ccc(CN2CCc3nc(Nc4ccc5c(c4)OCCO5)ncc3C2)cc1`, the Potency was inconclusive: 1 µM [activator, single point].
In the case of `c1ccc2c(-c3c[nH]c4ccccc34)c3ccccc3nc2c1`, the Potency was inconclusive: 39.8 µM [inhibitor, single point].
In the case of `CN1/C(=C/C2CC(=O)NC2=O)C(C)(C)c2ccccc21` (centres undefined), the Potency was inconclusive: 31.6 µM [inhibitor, single point].
For `CC1=Nc2ccccc2/C1=C\c1nc(-c2ccccc2)oc1O`, the Potency was inconclusive: 0.891 µM [activator, partial curve].
In the case of `C[C@@H](C(=O)Nc1ccc2ccccc2c1)[C@H]1C[C@]1(C)[C@H](NS(=O)(=O)c1ccccc1)c1ccccc1`, the Potency was inconclusive: 31.6 µM [inhibitor, partial curve] and inconclusive: 17.8 µM [inhibitor, partial curve, poor fit].
`O=C(N/N=C/C(Br)=C/c1ccccc1)c1ccncc1` was tested, and the Potency was inconclusive: 25.1 µM [inhibitor, single point].
In the case of `O=C(N/N=C/c1cccs1)c1cc(-c2cccc3ccccc23)n[nH]1`, the Potency was inconclusive: 28.2 µM [inhibitor, partial curve, poor fit].
In the case of `CC1=NN(c2ccccc2)C(=O)/C1=C/C=C/c1ccc(N(C)C)cc1`, the Potency was inconclusive: 14.1 µM [inhibitor, partial curve].
In the case of `Cc1cc(NC(=O)c2ccc(Br)c(S(=O)(=O)N3CCCC3)c2)no1`, the Potency was inconclusive: 35.5 µM [inhibitor, single point].
`C=CCn1c(-c2cccc(OC)c2)nc2nc3ccccc3nc21` was tested, and the “activity, negative = inhibition” value was inactive: -6.69%.
`COc1ccc(-c2cc(=O)c3cc(F)ccc3[nH]2)cc1` was tested, and the Potency was “inactive”.
For `Cc1ccnc(NS(=O)(=O)c2cc(C(F)(F)F)ccc2Cl)c1`, the “activity, negative = inhibition” value was inactive: -5.24%.
In the case of `O=C(Nc1ccc(Oc2ccccc2)cc1)C1CCN(S(=O)(=O)c2ccccc2)CC1`, the Potency was inconclusive: 35.5 µM [inhibitor, partial curve].
With `COC(=O)C(Cc1c[nH]c2ccccc12)NC(=O)c1cc(-c2ccc(OC)c(OC)c2)oc1C` (centres undefined) the Potency was inconclusive: 3.98 µM [activator, partial curve, poor fit].
In the case of `CCOC(=O)c1c(NC(=O)c2ccccc2Br)sc2c1CCc1ccccc1-2`, the Potency was inconclusive: 17.8 µM [inhibitor, partial curve].
In the case of `CC1=NN(c2ccc(C)cc2)C(=O)/C1=C\C=C\c1ccccc1`, the Potency was inconclusive: 8.91 µM [inhibitor, partial curve].
In the case of `CSc1cccc(N2C(=O)N(CC(=O)NCc3ccccc3Cl)c3ccccc3S2(=O)=O)c1`, the Potency was inconclusive: 2 µM [inhibitor, partial curve].
In the case of `CCOc1ccccc1N(C)C(=O)Cn1cnc2onc(-c3ccc(F)cc3)c2c1=O`, the Potency was inconclusive: 39.8 µM [inhibitor, single point].
In the case of `CCCCNS(=O)(=O)c1ccc2nc(SCC(=O)Nc3sccc3C#N)[nH]c2c1`, the Potency was inconclusive: 10 µM [inhibitor, partial curve, poor fit].
For `CCN(CC)c1ccc(/C=N/NC(=O)Cc2cccs2)c(O)c1`, the “activity, negative = inhibition” value was inactive: 13.2%.
`O=C(NCCN1CCOCC1)c1ccc(NC(=O)C2COc3ccccc3O2)cc1` (centres undefined) was tested, and the Potency was inconclusive: 0.0251 µM [inhibitor, full curve, poor fit].
With `COc1cc(-c2noc(-c3ccc(NC4CCCCC4)c([N+](=O)[O-])c3)n2)cc(OC)c1OC` the Potency was inconclusive: 39.8 µM [inhibitor, single point].
`Cc1ccc(NC(=O)CSc2nc(-c3cccs3)cc(C(F)(F)F)n2)cc1C` was tested, and the Potency was inconclusive: 39.8 µM [inhibitor, single point].
In the case of `COC(=O)NC(CC(C)=O)c1ccco1` (centres undefined), the activity, negative = inhibition was inactive: 5.46% [at 11.6 µM].
`COc1cc(OC)cc(C(=O)Nc2ccc3oc(-c4ccc(Cl)cc4)nc3c2)c1` was tested, and the Potency was inconclusive: 17.8 µM [inhibitor, partial curve, poor fit].
In the case of `CCOC(=O)C1(Cc2ccccc2C)CCCN(C(=O)CCn2nccc2C)C1` (centres undefined), the Potency was inconclusive: 0.355 µM [inhibitor, single point].
With `OC[C@H]1O[C@@H](n2cnc3c(N[C@H]4CC5CCC4C5)ncnc32)[C@H](O)[C@@H]1O` (some centres undefined) the Potency was inconclusive: 0.0251 µM [inhibitor, full curve, poor fit].
In the case of `COc1ccc(Cl)cc1Nc1nc(-c2sc(NC(=O)C(C)(C)C)nc2C)cs1`, the Potency was inconclusive: 22.4 µM [activator, single point].
With `CC(=O)c1ccc(OCc2ccccc2)c(C)c1O` the Potency was inconclusive: 2.24 µM [inhibitor, partial curve, poor fit].
For `O=C(CCSCCC(=O)NCc1ccco1)NCc1ccco1`, the Potency was inconclusive: 12.6 µM [inhibitor, partial curve].
`CCOc1ccccc1CNC(=O)CN1C(=O)CCn2nc(-c3cn(C)c4ccccc34)cc21` was tested, and the “activity, negative = inhibition” value was inactive: 13.8%.
With `Cc1cc(C)nc(Sc2ccc(/C=C(\C#N)C(=O)Nc3ccccc3)o2)n1` the “activity, negative = inhibition” value was inactive: -10.6%.
In the case of `COc1ccc(CNC(=O)c2ccc3c(c2)NC(=O)C(CS(=O)(=O)Cc2ccccc2Cl)N3)cc1` (centres undefined), the Potency was inconclusive: 14.1 µM [inhibitor, partial curve].
For `Cc1cc2cc(CNC(=O)Nc3cccc(Cl)c3)ccc2n1C`, the Potency was inconclusive: 39.8 µM [inhibitor, single point].
With `CC(=O)Nc1ccc(S(=O)(=O)N2CCN(c3ccccc3)CC2)cc1` the Potency was inconclusive: 44.7 µM [inhibitor, single point].
With `COC(=O)[C@@]1(Cc2ccccc2)[C@H]2c3cc(C(=O)N(C)C)n(C[C@H](O)CO)c3C[C@H]2CN1C(=O)c1ccccc1` the “activity, negative = inhibition” value was inactive: 2.5%.
In the case of `Cn1c(=O)c(=O)n(C)c2cc(N3CCCC3)c(NC(=O)c3ccc(C(C)(C)C)cc3)cc21`, the “activity, negative = inhibition” value was inactive: -1.52%.
With `Cc1ccc(SCc2nc(-c3ccc(C(=O)NCc4ccccc4Cl)cc3)oc2C)cc1` the “activity, negative = inhibition” value was inactive: -2.46%.
`CC(C)(C)c1cc[n+](C2=C([O-])c3ccccc3C(=O)/C2=N\S(=O)(=O)c2ccccc2)cc1` was tested, and the Potency was inconclusive: 39.8 µM [inhibitor, single point].
`Nc1nc(Cl)cc(N2CCC(c3cc(-c4ccc(Cl)cc4Cl)n[nH]3)CC2)n1` was tested, and the Potency was inconclusive: 31.6 µM [inhibitor, single point].
`Nc1nc2ccc([N+](=O)[O-])c(N)c2s1` was tested, and the Potency was inconclusive: 15.8 µM [inhibitor, single point].
With `O=C(Cn1ncc(Cl)c(Cl)c1=O)NCC1CCCCC1` the Potency was inconclusive: 1.12 µM [inhibitor, partial curve].
In the case of `O=c1c(-c2cnn(-c3ccccc3)c2)coc2cc(O)ccc12`, the Potency was inconclusive: 14.1 µM [inhibitor, partial curve].
In the case of `COC(=O)C1=C(C)N(Cc2ccccc2)C2=C3C(=O)CCCC3[C@@](O)(C(=O)OC)C(=O)N2C1c1ccccc1` (some centres undefined), the activity, negative = inhibition was inactive: -2.4% [at 11.6 µM] and inactive: 1.25% [at 11.6 µM].
`O=S(=O)(c1ccc(F)cc1)n1ccc(-c2cnc(-c3ccccc3)s2)n1` was tested, and the Potency was inconclusive: 15.8 µM [inhibitor, partial curve, poor fit].
`CCOC(=O)N1CCc2c(sc3c2C(=O)NC(c2ccccc2)N3)C1` (centres undefined) was tested, and the Potency was inconclusive: 35.5 µM [inhibitor, single point].
`Cc1ccc2c(c1)c(=O)c(C(=O)c1ccncc1)cn2CC(=O)Nc1ccc(C(C)C)cc1` was tested, and the Potency was inconclusive: 20 µM [inhibitor, single point].
In the case of `COc1ccc2nc3oc(C(=O)N(C)c4ccc(Cl)cc4)cc3cc2c1`, the “activity, negative = inhibition” value was inactive: 6.6%.
With `O=C(Nc1ccc(N2CCCC2)cc1)c1cccc(F)c1` the Potency was inconclusive: 1.41 µM [activator, full curve, poor fit].
`CCN1CCc2c(sc3c2c(NCc2ccco2)nc2nnnn23)C1` was tested, and the Potency was inconclusive: 28.2 µM [inhibitor, partial curve, poor fit].
In the case of `COc1c(Br)cc(Br)cc1/C=C1/C(=O)N=C(N)N1C`, the “activity, negative = inhibition” value was inactive: 2.25%.
In the case of `COc1ccc(NC(=O)Cn2c(=O)n(CCC(=O)NCCc3ccc(OC)c(OC)c3)c(=O)c3ccccc32)cc1Cl`, the “activity, negative = inhibition” value was inactive: -14%.
For `C#CCSc1nnc(-c2ccc([N+](=O)[O-])cc2)o1`, the “activity, negative = inhibition” value was inactive: 5.18%.
`O=C(CNC(=O)c1cccs1)N/N=C/c1ccc(O)cc1O` was tested, and the “activity, negative = inhibition” value was inactive: -4.86%.
`CN(C)S(=O)(=O)c1cc(NC(=O)CNCCN2CCOCC2)ccc1Cl` was tested, and the Potency was inconclusive: 39.8 µM [inhibitor, single point].
